Experimental data: the antibiotic and cytotoxicity screens of Wong et al. (2023)
Some of the results follow.

What follows are compounds tested on HSkMC (human skeletal muscle cells) (assay: cytotoxicity call (relative viability < 0.9)). Settings: 10 µM.
With Cc1ccc(S(=O)(=O)Nc2ccc3c(c2)CC(=O)N([C@H](C)CO)C[C@H](C)[C@H](CN(C)Cc2ccc(C(F)(F)F)cc2)O3)cc1 the cytotoxicity call was “active”. In the case of C[C@@H]1CN([C@H](C)CO)C(=O)c2cc(NC(=O)CCC(F)(F)F)ccc2O[C@@H](C)CCCCO[C@H]1CN(C)C(=O)c1ccccc1, the cytotoxicity call is reported as “inactive”. CN(CC(=O)NC1CCCCC1)S(C)(=O)=O was tested, and the cytotoxicity call was “inactive”. For O=C(C[C@H]1CC[C@@H]2[C@H](COC[C@H](O)CN2C(=O)c2ccncc2)O1)NC1CCC1, the cytotoxicity call was “inactive”. In the case of CCOC(=O)Cc1c(C)[nH]c(SC)nc1=O, the cytotoxicity call is reported as “inactive”. COCCC(=O)N1CC[C@]2(CCOC2)C1 was tested, and the cytotoxicity call was “inactive”. For CC(=O)N(C)C[C@@H]1Oc2cc(C#CCN(C)C)ccc2S(=O)(=O)N([C@@H](C)CO)C[C@@H]1C, the cytotoxicity call was “inactive”. With S=C1NCN(CCc2ccccc2)CN1 the cytotoxicity call was “inactive”. In the case of C[C@@H]1CCCCO[C@@H](CN(C)Cc2ccncc2)[C@H](C)CN([C@H](C)CO)C(=O)c2cc(NC(=O)CCC(F)(F)F)ccc2O1, the cytotoxicity call is reported as “inactive”. COc1ccc(NC(=O)N(C)C[C@H]2OCCCC[C@@H](C)Oc3ccc(NC(=O)c4ccncc4)cc3C(=O)N([C@H](C)CO)C[C@@H]2C)cc1 was tested, and the cytotoxicity call was “inactive”. C[C@H]1CN([C@@H](C)CO)C(=O)Cc2cc(NC(=O)CCC(F)(F)F)ccc2O[C@@H]1CN(C)Cc1ccc(-c2ccccc2)cc1 was tested, and the cytotoxicity call was “inactive”. With OC[C@H]1O[C@H](O)[C@H](O)[C@@H](O)[C@@H]1O the cytotoxicity call was “inactive”. In the case of C[C@H]1CN([C@@H](C)CO)C(=O)CCCn2cc(nn2)CO[C@H]1CN(C)S(=O)(=O)c1ccc(Cl)cc1, the cytotoxicity call is reported as “inactive”. In the case of COc1ccccc1CNC(=O)C[C@H]1CC[C@@H]2[C@H](COC[C@@H](O)CN2C(=O)Nc2ccc(F)cc2)O1, the cytotoxicity call is reported as “inactive”. C[C@H]1CN([C@@H](C)CO)C(=O)c2cccc(NC(=O)c3ccc(-c4nccs4)cc3)c2O[C@@H]1CN(C)C(=O)Nc1ccccc1 was tested, and the cytotoxicity call was “inactive”. With Cc1noc(C)c1NC(=O)N(C)C[C@@H]1OCCCC[C@@H](C)Oc2ccc(NS(=O)(=O)c3cccs3)cc2C(=O)N([C@H](C)CO)C[C@@H]1C the cytotoxicity call was “inactive”. CCS(=O)(=O)NCC[C@@H]1CC[C@@H](NC(=O)Cc2ccccn2)[C@H](CO)O1 was tested, and the cytotoxicity call was “inactive”. For C[C@H](CO)N1C[C@H](C)[C@H](CN(C)C(=O)C2CCCCC2)OCCCC[C@H](C)Oc2ccc(NC(=O)Nc3ccc4c(c3)OCO4)cc2C1=O, the cytotoxicity call was “inactive”. CN[C@H](CC(=O)O)C(=O)O was tested, and the cytotoxicity call was “inactive”. Cl.Fc1ccc(C2CCNCC2COc2ccc3c(c2)OCO3)cc1 (stereo not given) was tested, and the cytotoxicity call was “inactive”. With CSC1=NCCN1 the cytotoxicity call was “inactive”. O=C(O)CCCN=C1NC(=O)CC(=O)N1 was tested, and the cytotoxicity call was “inactive”. Cc1ccc(CSc2ncc(C(F)(F)F)cc2Cl)cc1 was tested, and the cytotoxicity call was “inactive”. CO[C@@H]1CN(C)C(=O)c2cc(NC(=O)C3CCOCC3)ccc2OC[C@@H](C)N(C(=O)Nc2ccc(C(F)(F)F)cc2)C[C@H]1C was tested, and the cytotoxicity call was “inactive”. With CC(C)NC(=O)N(C)C[C@H]1Oc2c(NC(=O)NC3CCCCC3)cccc2C(=O)N([C@@H](C)CO)C[C@H]1C the cytotoxicity call was “inactive”. In the case of Cc1noc(C)c1S(=O)(=O)N(C)C[C@H]1Oc2ccc(NS(=O)(=O)c3cn(C)cn3)cc2CC(=O)N([C@@H](C)CO)C[C@@H]1C, the cytotoxicity call is reported as “inactive”. With C[C@H](NC(=O)C[C@@H]1C[C@H]2c3cc(NC(=O)Nc4ccc(C(F)(F)F)cc4)ccc3O[C@H]2[C@H](CO)O1)c1ccccc1 the cytotoxicity call was “inactive”. With CS(=O)(=O)N1C[C@H]2COC[C@@]2(C(=O)NCc2ccccn2)C1 the cytotoxicity call was “inactive”. Cn1cnc(S(=O)(=O)N2C[C@H](O)COC[C@@H]3O[C@H](CC(=O)NCc4cccc(F)c4)CC[C@H]32)c1 was tested, and the cytotoxicity call was “inactive”. In the case of Cc1noc(C)c1NC(=O)Nc1ccc2c(c1)C(=O)N([C@@H](C)CO)C[C@@H](C)[C@@H](CN(C)S(=O)(=O)c1ccccc1)O2, the cytotoxicity call is reported as “inactive”. In the case of COCC#Cc1ccc([C@H]2[C@@H](CO)N3C(=O)CN(C(=O)c4cccnc4)C[C@@H]23)cc1, the cytotoxicity call is reported as “inactive”. With C[C@@H]1CN([C@@H](C)CO)C(=O)c2cc(NC(=O)CCN3CCOCC3)ccc2O[C@H]1CN(C)Cc1ccncc1 the cytotoxicity call was “inactive”. C[C@H](CO)N1C[C@H](C)[C@@H](CN(C)C(=O)Cc2ccncc2)Oc2cc(C3=CCCC3)ccc2S1(=O)=O was tested, and the cytotoxicity call was “inactive”. C[C@H](CO)N1C[C@H](C)[C@@H](CN(C)C(=O)Nc2ccc(F)cc2)Oc2ccc(NC(=O)CCCCCC(=O)Nc3ccccc3N)cc2C1=O was tested, and the cytotoxicity call was “inactive”. With C[C@H](CO)N1C[C@H](C)[C@@H](CN(C)C(=O)c2ccc3c(c2)OCO3)Oc2ncc(C#Cc3ccccc3F)cc2C1=O the cytotoxicity call was “inactive”.
